Source: the antibiotic and cytotoxicity screens of Wong et al. (2023)
The other results are listed elsewhere or left out.

System: S. aureus RN4220
Assay: growth inhibition call (relative growth <= 0.2)
Details: 50 µM

Growth inhibition call, inactive:
C[C@H]1CN([C@@H](C)CO)C(=O)c2cc(/C=C/c3ccccc3)cnc2O[C@@H]1CN(C)C(=O)C1CCOCC1
COCCOC(=O)N1C(=O)[C@@]2(c3cc(C#CC4(O)CCCCCC4)ccc31)[C@H](c1ccc(O)cc1)N1[C@H](c3ccccc3)[C@H](c3ccccc3)OC(=O)[C@H]1[C@@H]2C(N)=O
COCC(=O)N(C)C[C@H]1Oc2cc(C#Cc3ccccc3)ccc2S(=O)(=O)N([C@@H](C)CO)C[C@H]1C
Cc1noc(C)c1NC(=O)Nc1ccc2c(c1)C(=O)N([C@H](C)CO)C[C@H](C)[C@H](CN(C)Cc1ccc3c(c1)OCO3)OCCCC[C@@H](C)O2
C[C@@H]1CN([C@@H](C)CO)C(=O)c2cccc(NC(=O)c3cnccn3)c2O[C@H]1CN(C)S(=O)(=O)c1cn(C)cn1
Cc1ccc(S[C@]2(C(=O)NCc3ccccc3)CC(=O)N(Cc3cc(C(F)(F)F)cc(C(F)(F)F)c3)[C@@H]2c2ccc(CO)cc2)cc1
CO[C@H](CN(C)S(=O)(=O)c1ccc(Cl)cc1)[C@H](C)CN([C@@H](C)CO)S(=O)(=O)c1cccc(Cl)c1
C[C@H](CO)N1C[C@H](C)[C@@H](CN(C)S(=O)(=O)c2cccs2)Oc2c(NC(=O)Cn3cnnn3)cccc2C1=O
C[C@H](CO)N1C[C@H](C)[C@@H](CN(C)Cc2ccccc2)OCCCC[C@H](C)Oc2ccc(NC(=O)Cc3ccccc3)cc2C1=O
C[C@H](CO)N1C[C@H](C)[C@@H](CN(C)C(=O)c2ccncc2)Oc2cc(C#C[C@@H](C)O)ccc2S1(=O)=O
Cc1noc(C)c1NC(=O)N(C)C[C@H]1Oc2ccc(NC(=O)C3CC3)cc2CC(=O)N([C@H](C)CO)C[C@H]1C
C[C@@H]1CN([C@H](C)CO)C(=O)CCCn2cc(nn2)CO[C@@H]1CN(C)S(=O)(=O)c1ccc(-c2ccccc2)cc1
C[C@H]1CN([C@@H](C)CO)C(=O)c2cc(NC(=O)CCCN(C)C)ccc2O[C@@H]1CN(C)Cc1ccc(Oc2ccccc2)cc1
Cc1noc(C)c1NC(=O)N(C)C[C@H]1OCCCC[C@@H](C)Oc2ccc(NC(=O)c3ccccc3)cc2C(=O)N([C@H](C)CO)C[C@@H]1C
C[C@H]1CN([C@@H](C)CO)S(=O)(=O)c2ccc(C#Cc3ccc(F)cc3)cc2O[C@@H]1CN(C)S(C)(=O)=O
C[C@@H]1CN([C@@H](C)CO)C(=O)c2cc(NS(=O)(=O)c3cccs3)ccc2O[C@@H]1CN(C)Cc1ccncc1
CN1CCN(C(=O)C[C@H]2CC[C@@H]3[C@H](COC[C@@H](O)CN3S(=O)(=O)c3cccc(Cl)c3)O2)CC1
CCCN1C(=O)[C@@]2(c3ccc([N+](=O)[O-])cc3)CC(=O)N(CC34CC5CC(CC(C5)C3)C4)[C@@H]2c2ccc(CO)cc21
COc1ccc(NC(=O)N(C)C[C@@H]2Oc3c(NC(=O)c4ccc(-c5nccs5)cc4)cccc3C(=O)N([C@@H](C)CO)C[C@H]2C)cc1
COc1ccc(S(=O)(=O)Nc2cccc3c2O[C@@H](CN(C)S(=O)(=O)c2ccccc2)[C@@H](C)CN([C@H](C)CO)C3=O)cc1
O=C(C[C@H]1CC[C@@H]2[C@H](COC[C@H](O)CN2S(=O)(=O)c2ccccc2F)O1)NCc1ccccc1F
CC/C=C/C(=O)N(C[C@@H]1CCCO1)[C@@H]1CC(C(=O)NCCO)=C[C@H](Oc2c(I)cc(CO)cc2OC)[C@H]1O
Cc1noc(C)c1NC(=O)N(C)C[C@@H]1OCCCC[C@@H](C)Oc2ccc(NC(=O)Nc3ccc(F)cc3)cc2C(=O)N([C@H](C)CO)C[C@H]1C
COc1cccc(S(=O)(=O)N[C@@H]2CC[C@H](CC(=O)NC3CCC3)O[C@@H]2CO)c1
Cc1noc(C)c1NC(=O)Nc1ccc2c(c1)C(=O)N([C@@H](C)CO)C[C@@H](C)[C@@H](CN(C)C(=O)c1ccccc1)OCCCC[C@@H](C)O2
C[C@@H]1CN([C@@H](C)CO)C(=O)CCCn2cc(nn2)CO[C@H]1CN(C)S(=O)(=O)c1ccc2c(c1)OCCCO2
Cc1noc(C)c1NC(=O)Nc1ccc2c(c1)CC(=O)N([C@H](C)CO)C[C@@H](C)[C@H](CN(C)C(=O)NC(C)C)O2
